{
  "source": "PubChem BioAssay AID2101",
  "about": "(National Center for Advancing Translational Sciences (NCATS), 2009)",
  "note": "Among all 330,000 compounds or so, about 300 (0.091%) were called active. The inconclusive results got no clear call from the source; some entries with a clear call stand among them for comparison. The call rests on the fitted dose curve; in most records, active means well fitted inhibition curve with a large enough effect; inconclusive means small, poorly fitted or top-dose-only effect, or effect the other way, or another doubt; inactive means no such curve, though single readings can be large or run the other way. Potencies of inconclusive entries are left out as doubtful fits. Potency means the concentration at half of the fitted maximal effect.",
  "data": [
    {"target": "Lysosomal acid glucosylceramidase (Homo sapiens) (UniProt P04062)", "assay": "qHTS Assay for Inhibitors and Activators of N370S glucocerebrosidase as a Potential Chaperone Treatment of Gaucher Disease;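 on activity change, negative = inhibition: 0% = full enzyme activity and -100% = no enzyme basal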", "details": "N370S GC spleen homogenate, 4MU-glucoside fluorescence; activity change, negative = inhibition: at 59.4 µM (top of the series) unless noted", "values": [
      {"smiles": "CCNc1ncc2nc(C)c(=O)n(CCOC)c2n1", "Potency": "inconclusive [activator, partial curve]"},
      {"smiles": "O=C(c1ccccc1F)N(Cc1nc2ccccc2c(=O)[nH]1)C1CCCC1", "Potency": "inconclusive [activator, partial curve]"},
      {"smiles": "CC(C)(C)c1ccc(S(=O)(=O)N2CCN(C(=O)c3ccc4c(c3)C(=O)N(Cc3ccncc3)C4=O)CC2)cc1", "activity change, negative = inhibition": "inactive: -4.23%"},
      {"smiles": "N#C/C(=C/c1ccc(N2CCOCC2)o1)c1ccc(Cl)cc1", "activity change, negative = inhibition": "inactive: -6.67%"},
      {"smiles": "Clc1cccc(Cl)c1Cn1cnc2c(NCc3ccco3)ncnc21", "activity change, negative = inhibition": "inconclusive: 31.5% [activator]"},
      {"smiles": "N#Cc1nc(-c2ccc(Cl)cc2)oc1N1CCCCC1", "Potency": "inconclusive [activator, single point]"},
      {"smiles": "C=CCNC(=S)Nc1nc2c(cc1C(=O)OCC)CCCC2", "Potency": "inconclusive [activator, partial curve]"},
      {"smiles": "Nc1ccccc1C(=O)Nc1cccc(C(=O)O)c1", "activity change, negative = inhibition": "inactive: 6.95%"},
      {"smiles": "Cc1cccc(N2CCN(C(=O)c3ccc(NS(=O)(=O)c4ccc5[nH]c(=O)[nH]c5c4)cc3)CC2)c1C", "Potency": "inconclusive [inhibitor, partial curve]"},
      {"smiles": "CC1(C)CC(=O)C2=C(C1)Nc1ccccc1NC2c1ccccn1", "note": "(stereo unspecified)", "activity change, negative = inhibition": "inconclusive: 38.9% [activator]"},
      {"smiles": "O=C(COC(=O)C1C2CC3OC(=O)C1C3C2)Nc1ccc(Br)cc1", "note": "(stereo unspecified)", "Potency": "inconclusive [activator, partial curve]"},
      {"smiles": "CN(C)c1ccc(C(=O)/C=C/c2ccco2)cc1", "Potency": "inconclusive [activator, partial curve]"},
      {"smiles": "CCCc1cc(NCCCCO)n2c(nc3ccccc32)c1C#N", "Potency": "inconclusive [activator, partial curve, poor fit]"},
      {"smiles": "COc1ccc(C2CC(c3c(O)cc(C)oc3=O)=NCCS2)c(OC)c1", "note": "(stereo unspecified)", "Potency": "inconclusive [inhibitor, full curve]"},
      {"smiles": "Cc1ccc(N(C(=O)CCl)C(C(=O)NC2CCCCC2)c2cccnc2)cc1C", "note": "(stereo unspecified)", "activity change, negative = inhibition": "inactive: -18.3%"},
      {"smiles": "CCCc1cc(C(=O)Nc2nnc(C)s2)cs1", "Potency": "inconclusive [inhibitor, single point]"},
      {"smiles": "O=C(Nc1nc(-c2ccccn2)cs1)c1ccc(Cl)s1", "Potency": "inconclusive [inhibitor, single point]"},
      {"smiles": "CC(=O)Nc1ccc(Nc2nnc(-c3ccc(C)c(S(=O)(=O)NCCO)c3)c3ccccc23)cc1", "activity change, negative = inhibition": "inactive: -4.84%"},
      {"smiles": "CCO[C@H]1OC(C(=O)Nc2ccccc2)=C[C@@H](c2ccc(C(F)(F)F)cc2)[C@@H]1CCCO", "Potency": "inconclusive [activator, single point]"},
      {"smiles": "Cc1ccc(-c2nn(-c3ccccc3)cc2C=C2C(=O)CC(C)(C)CC2=O)cc1", "activity change, negative = inhibition": "inactive: -14.4%"},
      {"smiles": "C=CCCN(C(C)C(=O)OC)S(=O)(=O)c1ccccc1Br", "note": "(stereo unspecified)", "activity change, negative = inhibition": "inactive: -12.3%"},
      {"smiles": "Cc1ccc(NC(=O)c2oc3c(c2C)C(=O)CC(C)(C)C3)cc1", "Potency": "inconclusive [activator, partial curve]"},
      {"smiles": "O=C(CNC(=S)N(CCCN1CCOCC1)Cc1cccs1)NCc1ccccc1Cl", "Potency": "inconclusive [inhibitor, partial curve]"},
      {"smiles": "COc1ccc(OC)c(C(=O)NC(CC(N)=O)c2ccc(N3CCC(N4CCCC4)CC3)c([N+](=O)[O-])c2)c1", "note": "(stereo unspecified)", "Potency": "inconclusive [inhibitor, single point]"},
      {"smiles": "CCC(CC)c1nnc(NC(=O)C23CC4CC(CC(NC(C)=O)(C4)C2)C3)s1", "Potency": "inconclusive [activator, single point]"},
      {"smiles": "CCn1cc(Cl)c(C(=O)Nc2nc3ccccc3n2CCN2CCCCC2)n1", "activity change, negative = inhibition": "inactive: -4.68%"},
      {"smiles": "Cc1cc(N2CCN(c3ccc(C(F)(F)F)cc3[N+](=O)[O-])CC2)c2ccccc2n1", "Potency": "inconclusive [inhibitor, single point]"},
      {"smiles": "C=C(C)CNC(=S)N/N=C/C1=CCC2CC1C2(C)C", "note": "(stereo unspecified)", "Potency": "inconclusive [activator, single point]"},
      {"smiles": "CC(=O)N(C)c1ccc(C(O)(C(F)(F)F)C(F)(F)F)cc1", "activity change, negative = inhibition": "inactive: -7.32%"},
      {"smiles": "COc1ccccc1OCCn1cc(C#N)c2ccccc21", "Potency": "inconclusive [activator, partial curve]"},
      {"smiles": "O=C(CSc1nc2nn(-c3ccccc3)c(=O)c-2c2n1CCCCC2)NCCCc1ccccc1", "Potency": "inconclusive [activator, single point]"},
      {"smiles": "COc1ccc(C2=C(CN(C)C)C(c3ccccc3)c3ccccc3O2)cc1", "note": "(stereo unspecified)", "Potency": "inconclusive [inhibitor, full curve, poor fit]"},
      {"smiles": "N=C1S/C(=C\\c2ccc(-c3ccccc3C(=O)O)o2)C(=O)N1c1ccc2c(c1)OCO2", "Potency": "inconclusive [inhibitor, single point]"},
      {"smiles": "O=C(COC(=O)CSc1nnc(-c2ccc(Cl)cc2)o1)Nc1cc(Cl)cc(Cl)c1", "Potency": "inconclusive [activator, single point]"},
      {"smiles": "COc1ccccc1NC(=O)Nc1nc(CC(=O)Nc2ccccc2F)cs1", "Potency": "inconclusive [activator, partial curve]"},
      {"smiles": "Cc1c(Cc2ccccc2)c(=O)n2c([nH]c3ccccc32)c1C#N", "Potency": "inconclusive [activator, partial curve]"},
      {"smiles": "COC(=O)C1=CN(C2CC2)C=C(C(=O)OC)C1c1ccc(C(=O)OC)cc1", "activity change, negative = inhibition": "inactive: 27.3%"},
      {"smiles": "Cc1cc(C)n(C(=O)COc2ccc([N+](=O)[O-])cc2)n1", "Potency": "inconclusive [inhibitor, partial curve]"},
      {"smiles": "COCC(C)n1c(SCC(=O)NCCC2=CCCCC2)nc2ccccc2c1=O", "note": "(stereo unspecified)", "Potency": "inconclusive [activator, partial curve, poor fit]"},
      {"smiles": "Cc1cc(N2CCOCC2)nc2ccc(NC(=O)CCC(=O)N3CCN(c4cccc(C(F)(F)F)c4)CC3)cc12", "Potency": "inconclusive [activator, partial curve]"},
      {"smiles": "CCC(C)NC(=O)CN(c1cc(C)cc(C)c1)S(=O)(=O)c1c(C)[nH]c(=O)[nH]c1=O", "note": "(stereo unspecified)", "Potency": "active: 10 µM"},
      {"smiles": "O=C(NCc1ccco1)c1ccc2c(c1)N(Cc1ccc(Cl)cc1)CCS2", "Potency": "inconclusive [activator, partial curve]"},
      {"smiles": "Cc1ccc(NC(=O)COC(=O)C2CC2(Cl)Cl)cc1C", "note": "(stereo unspecified)", "Potency": "inconclusive [activator, partial curve, poor fit]"},
      {"smiles": "Cn1cnnc1Sc1ccc(/C=C/C(=O)c2ccc(O)cc2)cc1[N+](=O)[O-]", "Potency": "inconclusive [inhibitor, single point]"},
      {"smiles": "COc1ccc(CC(=O)NCc2ccccc2)cc1OC", "Potency": "inconclusive [inhibitor, full curve, poor fit]"},
      {"smiles": "COc1ccc(N(C(=O)c2snc(C(N)=O)c2N)C(C(=O)NCc2ccc(F)cc2)c2ccc(O)cc2)cc1", "note": "(stereo unspecified)", "Potency": "inconclusive [activator, single point]"},
      {"smiles": "COc1ccc(Nc2nc(CC(C)=O)ns2)cc1", "activity change, negative = inhibition": "inactive: 0.843%"},
      {"smiles": "Cc1ccc(C(=O)N/C(=C/C=C/c2ccccc2)C(=O)NCc2ccco2)cc1", "Potency": "inconclusive [activator, partial curve, poor fit]"},
      {"smiles": "C=C(C)c1cccc(C(C)(C)NC(=O)Nc2cc(C)ccn2)c1", "Potency": "inconclusive [activator, partial curve]"},
      {"smiles": "COc1ccc(CCNCc2ccc(OCC(=O)N3CCCCC3)c(OC)c2)cc1OC", "Potency": "inconclusive [inhibitor, single point]"},
      {"smiles": "CCCCOC(=O)c1sc2nc(C)cc(C)c2c1N", "Potency": "inconclusive [activator, partial curve]"},
      {"smiles": "Cc1cc(N2CCN(C)CC2)nc2ccc(NC(=O)c3ccc(Br)o3)cc12", "Potency": "inconclusive [inhibitor, partial curve]"},
      {"smiles": "COc1ccc(NC(=O)NNC(=O)c2ccc3ccccc3c2O)cc1OC", "Potency": "inconclusive [activator, partial curve]"},
      {"smiles": "CCCCn1c(-c2ccco2)n[nH]c1=S", "activity change, negative = inhibition": "inactive: -0.434%"},
      {"smiles": "CC(C)Cc1cc(C(=O)N2CCN(c3ccc(F)cc3)CC2)no1", "Potency": "inconclusive [activator, partial curve]"},
      {"smiles": "N#Cc1ccc(-c2ccc(F)cc2)nc1Sc1ccccc1", "Potency": "inconclusive [inhibitor, single point]"},
      {"smiles": "CCCn1c(C(C)NC(=O)c2ccccc2)n[nH]c1=S", "note": "(stereo unspecified)", "Potency": "inconclusive [activator, partial curve]"},
      {"smiles": "O=C(NCCC(c1ccccc1)c1ccccc1)c1cccs1", "Potency": "inconclusive [activator, partial curve]"},
      {"smiles": "COc1ccc(CC(=O)Nc2ccc(-c3cn4ccc(C)cc4n3)cc2)cc1", "Potency": "inconclusive [inhibitor, single point]"},
      {"smiles": "O=C(COc1ccccc1F)Nc1cc(S(=O)(=O)N2CCOCC2)ccc1N1CCOCC1", "Potency": "inconclusive [activator, single point]"},
      {"smiles": "O=C(NCc1ccco1)/C(=C/c1ccc(C(F)(F)F)cc1)c1nc2ccccc2[nH]1", "activity change, negative = inhibition": "inactive: -1.29%"},
      {"smiles": "COC(=O)[C@@H]1[C@@H](O)[C@]2(O)c3ccccc3O[C@]2(c2ccccc2)[C@H]1c1ccccc1", "activity change, negative = inhibition": "inactive: 8.73% [at 12.8 µM]"},
      {"smiles": "CC(OC(=O)CCN=C1NS(=O)(=O)c2ccccc21)C(=O)N(C)c1ccccc1", "note": "(stereo unspecified)", "activity change, negative = inhibition": "inactive: -1.09%"},
      {"smiles": "Cc1csc(NC(=O)CN2C(=O)c3ccccc3S2(=O)=O)n1", "Potency": "inconclusive [activator, partial curve]"},
      {"smiles": "COc1cc(OC)c2nc(C)c3c(c2c1)N(c1ccc(O)cc1)CC3", "Potency": "inconclusive [inhibitor, single point]"},
      {"smiles": "COc1ccc(Br)cc1CNc1ccc(N2CCOCC2)cc1", "activity change, negative = inhibition": "inactive: -6.8%"}
    ]}
  ]
}
